# From PubChem BioAssay AID588795 (National Center for Advancing Translational Sciences (NCATS), 2011)
# About 1,400 (0.36%) of roughly 390,000 compounds were called active. Inconclusive means that the source gave no clear call. Such entries were picked first, then a sample of the others. Calls come from the whole dose curve; as a rule, active = well fitted inhibition curve with a large enough effect; inconclusive = small, poorly fitted or top-dose-only effect; inactive = no such curve, though single readings can be large or run the other way. Potencies beside an inconclusive call are fits to weak or partial responses and may not hold up.
# Biological target: Flap endonuclease 1 (Homo sapiens) (UniProt P39748)
# Assay: qHTS Assay for the Inhibitors of Human Flap endonuclease 1 (FEN1). Note: nearly all actives have a fitted effect of over 65% in size.
# Settings: Recombinant FEN1 flap cleavage, fluorescence, 15 min; series mostly up to 114 µM; activity change, negative = inhibition: at the top concentration
# Summary of the method: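 Potency values derive from four-parameter Hill fits of normalized qHTS data. The reaction used 10 nM FEN1 preincubated 15 min at room temperature with compound, then 50 nM DNA substrate, read at 0 and 15 min.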
# % is set by controls: 0 for no effect and ±100 for the full control effect; potency is the fitted concentration of half-maximal effect; tags give direction and shape of the fitted curve.
# Chain of UniProt P39748 (P39748 whole entry, looked up): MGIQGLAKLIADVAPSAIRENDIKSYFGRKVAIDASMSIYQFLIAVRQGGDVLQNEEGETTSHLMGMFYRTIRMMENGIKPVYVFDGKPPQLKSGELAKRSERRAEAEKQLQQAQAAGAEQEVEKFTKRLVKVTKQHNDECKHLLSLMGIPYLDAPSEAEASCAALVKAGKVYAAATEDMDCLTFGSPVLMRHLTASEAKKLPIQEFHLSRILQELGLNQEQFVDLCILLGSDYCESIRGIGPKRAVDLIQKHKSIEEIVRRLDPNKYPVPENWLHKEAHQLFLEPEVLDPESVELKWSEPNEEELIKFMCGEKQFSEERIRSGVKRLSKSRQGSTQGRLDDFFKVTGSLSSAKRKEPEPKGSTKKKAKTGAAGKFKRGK
SMILES,Potency,"activity change, negative = inhibition"
CCN(CCCNC(=O)c1cc2c(=O)[nH]c3ccc(C)cc3c2s1)Cc1ccccc1,"inconclusive: 14.1 µM [inhibitor, partial curve, poor fit]",
O=S(=O)(O)c1cc(O)c(N=Nc2ccc(O)cc2O)c2ccccc12,active: 35.5 µM,
Cc1ccc(-n2c(-c3ccco3)n[nH]c2=S)cc1,,inactive: -2.67%
CN(C)CCCNc1ccc(-c2cc(Nc3cccc(Cl)c3)ncn2)cn1,"inconclusive: 56.2 µM [inhibitor, partial curve, poor fit]",
CC(=O)c1cc(-c2ccc(F)cc2)n(CCC(=O)NCc2ccc(C)cc2)c1C,,inactive: -6.54%
O=C(CCN1C(=O)/C(=C\c2cccs2)SC1=S)Nc1ccc(C(=O)O)cc1,"inconclusive: 39.8 µM [inhibitor, partial curve, poor fit]",
C[C@](Cc1ccc(O)c(O)c1)(NN)C(=O)O,"inconclusive: 0.134 µM [inhibitor, full curve, poor fit]",
CCOc1ccccc1CN(CCc1ccc2c(c1)OCO2)Cc1cc(OC)c(OC)cc1OC,"inconclusive: 44.7 µM [inhibitor, partial curve, poor fit]",
CCOc1ccc(/C=C2/Sc3ccc(C(=O)NCC4CCCO4)cc3N(C)C2=O)cc1OC (configuration not stated),"inconclusive: 50.1 µM [inhibitor, partial curve, poor fit]",
Cc1ccc(C(=O)N/N=C/c2ccoc2)cc1C,,inactive: 8.7%
Cn1nc(-c2ccc(Cl)cc2)c2cc(C(=O)N3CCOCC3)sc21,"inconclusive: 79.4 µM [inhibitor, single point]",
CC(=O)C1=C(O)C(=O)N(Cc2ccccc2)C1c1ccc(Cl)cc1 (configuration not stated),"inconclusive: 79.4 µM [inhibitor, partial curve, poor fit]",
Cc1cc(C)c(/C=C/c2onc(C)c2S(=O)(=O)N2CCC(C(=O)Nc3ccc(Cl)c(C(F)(F)F)c3)CC2)c(C)c1,,inactive: -13.3%
COc1cc2c(NC3CCN(C)CC3)nc(N3CCCN(C)CC3)nc2cc1OCCCC(C)C,"inconclusive: 44.7 µM [inhibitor, partial curve, poor fit]",
CCN(CC)CCSc1nnc2c3ccccc3n(CCc3ccccc3)c2n1,"inconclusive: 44.7 µM [inhibitor, partial curve, poor fit]",
N#Cc1c(N)n(-c2ccccc2N)c2nc3ccccc3nc12,"inconclusive: 79.4 µM [inhibitor, partial curve, poor fit]",
CCOC(=O)c1cnc2c(ccc3ccccc32)c1Cl,,inactive: 5.79%
COc1ccccc1/C=C1\SC(=S)N(C(C(=O)O)c2ccccc2)C1=O (configuration not stated),,inactive: -7.81%
Cc1ccc(N(CC(=O)N2CCN(c3cc(Cl)ccc3C)CC2)S(=O)(=O)c2c(C)noc2C)cc1,,inactive: 10.9%
CCN(CC)CCOc1ccc2c(c1)C(=NNC(=O)c1ccccn1)c1cc(OCCN(CC)CC)ccc1-2,"inconclusive: 2.82 µM [inhibitor, full curve, poor fit]",
COc1cc(NC(=O)c2cc(-c3cccc(Cl)c3)on2)c(OC)cc1Cl,,inactive: 9.71%
CCOC(=O)c1cnc2ccccc2c1Nc1ccc(N2CCOCC2)cc1,"inconclusive: 89.1 µM [inhibitor, partial curve, poor fit]",
COC(=O)CCC(=O)OC1(C)C(=O)C=C2C=C(C3CC3)N(c3ccccc3)C=C2C1=O (configuration not stated),"inconclusive: 25.1 µM [inhibitor, single point]",

SMILES,Potency,"activity change, negative = inhibition"
Cc1ccc(C)c(N2CCN(C(c3ccc(F)cc3)c3nnc(-c4ccccc4)o3)CC2)c1 (configuration not stated),"inconclusive: 89.1 µM [inhibitor, single point]",
Nc1cc(C(=O)O)c(N)c2c1C(=O)c1ccccc1C2=O,active: 35.5 µM,
CCOC(=O)c1ccccc1NC(=O)c1ccc2nccnc2c1,"inconclusive: 50.1 µM [inhibitor, partial curve, poor fit]",
CC1(C)c2ccccc2N2CC(=O)N(CC(N)=O)C21C (configuration not stated),active: 79.4 µM,
CC(=O)[C@H]1[C@H]([C@H](O)[C@H](O)CO)O[C@](O)(C(=O)O)C[C@@H]1O,,inactive: 5.6%
O=C(/C=C/c1ccco1)OCc1nnc(-c2ccccc2)o1,,inactive: 1.3%
NNC(=O)c1oc2nc(-c3ccco3)cc(-c3ccco3)c2c1N,active: 50.1 µM,
CC(CNC(=O)CCCn1ncn2c(cc3occc32)c1=O)c1ccccc1 (configuration not stated),,inactive: 14.7%
O=C(CCN1CCOCC1)c1ccc2c(c1)OCCO2,,inactive: 1.11%
CN1OC[C@@H]2CN(Cc3ccc(Cl)cc3)[C@H](c3cccc(Br)c3)C[C@@H]21,"inconclusive: 79.4 µM [inhibitor, partial curve, poor fit]",
CCC(C(=O)O)n1c(C(F)(F)F)nc2ccccc21 (configuration not stated),,inactive: 0.804%
CC(=O)C1(O)Cc2c(O)c3c(c(O)c2C(OC2CC(N)C(O)C(C)O2)C1)C(=O)c1c(O)cccc1C3=O (configuration not stated),"inconclusive: 56.2 µM [inhibitor, partial curve, poor fit]",
Cc1c(C(=O)Oc2cc(N)n(S(C)(=O)=O)n2)cccc1[N+](=O)[O-],,inactive: -14%
C[C@H](CO)N1C[C@H](C)[C@@H](CN(C)C(=O)Nc2ccc(C(F)(F)F)cc2)Oc2c(NC(=O)Nc3ccccc3)cccc2C1=O,"inconclusive: 79.4 µM [inhibitor, partial curve, poor fit]",
COc1cc(C(=O)O/N=C2\C=CC(=O)C(C)=C2)cc(OC)c1OC,,inactive: 3.77%
COc1cc2ccc(=O)oc2c(O)c1O,active: 8.91 µM,
Cc1cccc2cc(C#N)c(NCCCNS(=O)(=O)c3ccc(Cl)cc3)nc12,"inconclusive: 70.8 µM [inhibitor, partial curve, poor fit]",
O=C1CCCN1CCCNc1ncnc2c1[nH]c1ccc(Cl)cc12,"inconclusive: 89.1 µM [inhibitor, single point]",
Cc1ccc(NC(=S)c2nc3ccccc3[nH]2)c(C)c1,,inactive: -9.41%
Cc1ccc(Oc2nc3ccccn3c(=O)c2/C=C(\C#N)c2nc3ccccc3s2)c(C)c1,"inconclusive: 50.1 µM [inhibitor, partial curve, poor fit]",
CCOc1ccc(-c2cc(C(=O)NCCc3ccccc3)c3c(-c4ccc(C)cc4)[nH]nc3n2)cc1,"inconclusive: 70.8 µM [inhibitor, single point]",
Cc1c(Cc2ccccc2)c(=O)oc2c(C)c(OCC(=O)NCC3CCC(C(=O)O)CC3)ccc12 (configuration not stated),"inconclusive: 70.8 µM [inhibitor, single point]",
CN(C)c1ccc(/C=C/c2ncnc3ccccc23)cc1,"inconclusive: 20 µM [inhibitor, full curve]",

SMILES,Potency,"activity change, negative = inhibition"
CN1/C(=C\C(=S)NC(=O)c2ccccc2Cl)C(C)(C)c2ccccc21,,inactive: -16.4%
CC(C)NC(=O)CSc1nc2ccccc2c(=O)n1Cc1ccc(C(=O)NC(C)C)cc1,,inactive: 5.8%
O=C1c2ccccc2C(=O)N1/N=C/c1ccc(O)c(O)c1O,active: 11.2 µM,
Cc1ccc(NC(=O)C(Cc2ccccc2)n2cccc2)cc1C (configuration not stated),"inconclusive: 50.1 µM [inhibitor, partial curve, poor fit]",
O=C1C(=Cc2ccco2)CCC1=Cc1ccco1,active: 8.91 µM,
CC/C=C1/N=C2C(=O)N(C)C(=O)N=C2N(C)N1,,inactive: -11.4%
CCOC(=O)c1scc(-c2ccccc2)c1S(=O)(=O)N1CCN(c2ccccc2OC)CC1,,inactive: -1.93%
O=C1c2ccccc2C(=O)c2c(Nc3ccc(CCO)cc3)ccc(O)c21,"inconclusive: 79.4 µM [inhibitor, single point]",
O=C(NC1CC1)c1cc(-c2ccco2)nc2ccccc12,"inconclusive: 56.2 µM [inhibitor, partial curve, poor fit]",
Cc1ccc(S(=O)(=O)N(CC(=O)Nc2ccc3c(c2)OCO3)c2ccc(C)c(Cl)c2)cc1,"inconclusive: 50.1 µM [inhibitor, partial curve, poor fit]",
CCN(CC)c1ccc2cc(-c3nc(-c4cc(OC)c(OC)c(OC)c4)no3)c(=O)oc2c1,"inconclusive: 89.1 µM [inhibitor, single point]",
COc1cc2cc(Oc3ccc4ccc(=O)oc4c3)c(=O)oc2cc1OC(C)=O,,inactive: 17.1%
C[C@@H](C(=O)N1CCNCC1)n1cc(CCC(=O)O)nn1,"inconclusive: 35.5 µM [inhibitor, single point]",
CCN1/C(=C/c2ccc3cc(C)ccc3[n+]2CC)Sc2cc(C)ccc21,"inconclusive: 12.6 µM [inhibitor, full curve, poor fit]",
COc1ccccc1NC(=O)C1CCN(c2cnccn2)CC1,,inactive: -8.3%
CC(=O)N1CCCc2cc(S(=O)(=O)N3CCN(c4cccc(C(F)(F)F)c4)CC3)ccc21,"inconclusive: 22.4 µM [inhibitor, partial curve, poor fit]",
CC(C)(C)OC(=O)NCCCCCNC(=O)c1[nH]cnc1C(=O)N[C@@H](Cc1ccccc1)C(=O)OC(C)(C)C,"inconclusive: 79.4 µM [inhibitor, partial curve, poor fit]",
O=C1c2ccccc2C(=O)c2c(O)c(O)cc(O)c21,"inconclusive: 63.1 µM [inhibitor, partial curve, poor fit]",
Cc1[nH]n(-c2ccccc2)c(=O)c1N=Nc1ccccc1C(=O)O,"inconclusive: 44.7 µM [inhibitor, partial curve, poor fit]",
O=C(CCC1N=C2c3ccccc3N=C(SCc3ccc(F)cc3)N2C1=O)NC1CCCCC1 (configuration not stated),,inactive: 13.1%
COC(=O)C1=C(C)N(c2ccc(OC)cc2)C(C)=C(C(=O)OC)C1c1ccccc1,"inconclusive: 50.1 µM [inhibitor, partial curve, poor fit]",
